Here are results for 2 compounds from PubChem BioAssay (NCI).

The structures appear in SMILES notation.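 Results reflect a 48-hour exposure of cells in 96-well plates to compound at five concentrations. At the GI50, growth is halved. At the TGI there is no net growth.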

This test deals with NCI-H322M lung. Description: NCI tumour cell line growth inhibition, 48 h.

For `CCCC(=O)NC(c1ccc2c(c1)OC(F)(F)O2)c1cc(C)c2cccnc2c1O` (centres undefined), the GI50 is 0.759 µM and the TGI is > 100 µM.

As to `CN1CCN(c2ccc(Nc3nc(NCCCNS(=O)(=O)c4ccccc4)c4sccc4n3)cc2)CC1`, the GI50 is 14.1 µM and the TGI was 28.5 µM.
